Test results as given in the supplement of paper PMC5499739.
In all, about 16,000 sequences were measured (“Z-score”: median about -0.37, highest 2% from about 3.1 on). The list shows a part of the results.

The sequences below were run on RBM10 RRM1-ZnF-RRM2 (GST-tagged construct) (assay: RNAcompete 7-mer binding Z-score; higher = stronger binding preference).
Outline: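 GST-tagged RBM10 constructs (20 pmol) were mixed with a designed pool of 241 399 RNAs up to 41 nt (1.5 nmol), transcribed from microarray-derived DNA templates. Mixing was in 1 ml Hepes pH 7.8 buffer with KCl, NaCl, glycerol, DTT, BSA and glutathione Sepharose beads. Binding ran 30 min at 4°C, followed by four 2-min washes at 4°C, and bound RNA was identified by microarray hybridisation. Each heptamer motif received a one-sided Z-score for enrichment across probes containing it.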

Row | Sequence | RNAcompete 7-mer binding Z-score
1 | AGGCCCC | -0.726
2 | ACUACGG | 0.355
3 | CUAUCCG | -0.865
4 | GCCAGUG | 0.235
5 | UAAGCUG | -0.362
6 | UUAGCCG | -0.748
7 | UGUCGUA | -0.202
8 | AUCCGAA | -0.537
9 | CGAAAAG | 0.323
10 | UCUUUGU | -0.792
11 | GACGGAG | 2.01
12 | CACCCAG | -0.639
13 | UGACUUG | -0.679
14 | CCAUGAU | -0.573
15 | UCUUGUC | -0.81
16 | UCUUGCC | -1.08
17 | CCUCCCU | -0.661
18 | ACAGUUC | -0.672
19 | GGACAGG | 3.23
20 | UGACCCC | -0.428
21 | CCACGAU | -0.803
22 | UACGCUG | -0.195
23 | UCGAGCG | -0.0925
24 | GUUUAAU | -0.471

Row | Sequence | RNAcompete 7-mer binding Z-score
25 | CUGGGUU | 1.11
26 | CACAAGU | -0.497
27 | GCAAAUA | -0.242
28 | CAUACUC | -0.795
29 | AAUGCCG | -0.398
30 | GGGAAGC | 3
31 | UGUUAUU | -0.763
32 | AAUCCCC | -0.715
33 | CAGUGAA | 0.479
34 | GUAGAGC | 0.701
35 | AUCCUGA | -0.697
36 | UGUUGGC | -0.198
37 | UUAUAUG | -0.322
38 | ACGAAUU | -0.271
39 | GGUCCUG | 0.235
40 | AGCGGUG | 1.4
41 | UCCUAUG | -0.799
42 | GGAAAGU | 1.84
43 | UAGAAAC | -0.00148
44 | ACCUAGC | -0.712
45 | AGCACUG | -0.107
46 | AAUAUGA | 0.144
47 | AACCAGC | -0.573
48 | UGAAGGC | 1.21

Row | Sequence | RNAcompete 7-mer binding Z-score
49 | AUUAUAG | 0.0422
50 | CAACUCA | -0.719
51 | UGUCGGC | -0.391
52 | CACAGGC | 0.355
53 | CCCAGGA | -0.26
54 | ACGCGUU | -0.464
55 | GCCUCCU | -0.832
56 | AGUACAG | 0.752
57 | CGUCAUA | -0.519
58 | GUACUCC | -0.577
59 | GAUGUAC | -0.0379
60 | AUGUGUG | 0.884
61 | AAGGAGG | 4.62
62 | UUUCUUA | -0.734
63 | CCGUCGC | -0.752
64 | GCCUCCA | -0.643
65 | CAAGUAC | -0.551
66 | GCGCGUU | -0.453
67 | UAGGACA | 1.74
68 | CACAAGA | -0.391
69 | ACCGAUG | -0.267
70 | CUUUAGA | -0.766
71 | GCCUGAA | -0.613
72 | AGAGCUG | -0.0161

Row | Sequence | RNAcompete 7-mer binding Z-score
73 | GUGGGGG | 4.18
74 | UUAGUCU | -0.61
75 | UCGUAUC | -0.457
76 | CUACCGU | -0.708
77 | GAGCGCC | -0.53
78 | GUUUCCA | -0.377
79 | UUAACGU | -0.3
80 | AGACAAC | -0.526
81 | CCUCUAU | -0.901
82 | CAGGGUU | 2.05
83 | AACGACC | -0.486
84 | UCGUAGA | -0.3
85 | GAGACUG | -0.122
86 | AACGGGC | 2.33
87 | UAUGCCG | -0.752
88 | GCAUCGC | -0.431
89 | AACCGAG | -0.0233
90 | CGCGCGA | -0.296
91 | UGACCUC | -0.806
92 | CUGAGUU | -0.497
93 | AGGGGUG | 3.14
94 | GGGUUUG | 2.34
95 | CAUGCCG | -0.785
96 | CGUCCAG | -0.5

Row | Sequence | RNAcompete 7-mer binding Z-score
97 | ACACUUA | -0.701
98 | CUUUUGC | -0.952
99 | CCUCGUC | -0.766
100 | AGCUUUU | -0.792
101 | UGACAAU | 0.115
102 | UUGGGGG | 3.03
103 | GAGCAAU | -0.0233
104 | UGUUCGG | 0.024
105 | GGGGGUA | 3.52
106 | AGCAUUA | -0.238
107 | ACCUUUU | -1.03
108 | UCUACGC | -0.836
109 | GGGACCA | 1.9
110 | CAUCAUU | -0.664
111 | CUAGUAA | -0.541
112 | CAUGGUA | 0.319
113 | UGGACAG | 1.45
114 | AACGUCG | -0.103
115 | CGCUCUG | -0.657
116 | AGAAACC | -0.613
117 | CGCCAGG | 0.148
118 | CAACCCA | -0.617
119 | GAAAAAG | 1.52
120 | UGCCGCG | -0.657

Row | Sequence | RNAcompete 7-mer binding Z-score
121 | CAACUGC | -0.763
122 | UGUACGG | 0.701
123 | UGCUUCU | -0.737
124 | CGAUUAG | -0.0488
125 | UAAAUCG | -0.464
126 | AUUCGCA | -0.431
127 | AGUUACG | 0.0313
128 | UCCAAGA | -0.315
129 | GCCGAGC | -0.0998
130 | CCCACUG | -0.697
131 | GGUAUAU | 0.92
132 | AGGUAGC | 0.862
133 | AGCGAUC | -0.129
134 | GUUCUUC | -0.708
135 | ACCUACG | -0.821
136 | UUAUGUG | -0.256
137 | CGGUUUG | 0.232
138 | AAAUGUG | 0.465
139 | GAUCGUC | -0.417
140 | GCGGUGC | 0.836
141 | GGUUGUG | 1.78
142 | UAAGACG | 0.144
143 | CGUCACG | -0.562
144 | CUGAAUG | -0.38

Row | Sequence | RNAcompete 7-mer binding Z-score
145 | CGAUAGU | -0.078
146 | GAUGACG | 0.698
147 | CUUACAA | -0.785
148 | CGGCCCG | -0.668
149 | CAGGUGA | 1.54
150 | AAGCGAA | 0.221
151 | CACUGGU | -0.144
152 | CGCGCAC | -0.592
153 | GCAGUGU | 0.206
154 | GGAUAGA | 2.48
155 | GUCAGUC | -0.144
156 | UAACCCU | -0.901
157 | UUCGAUU | -0.766
158 | AGAAGCC | -0.861
159 | UAAAUCC | -0.763
160 | CCCUCAU | -0.777
161 | CCCAUUA | -0.908
162 | UUCAUCC | -0.748
163 | CUGAAAC | -0.694
164 | GUAGGCG | 2.29
165 | GGAUUGC | 0.88
166 | AGCACCC | -0.533
167 | GAACGGC | 0.84
168 | GCUGGAC | 0.111

Row | Sequence | RNAcompete 7-mer binding Z-score
169 | GGAUAGG | 4.1
170 | ACUACGC | -0.752
171 | AUGGCCC | -0.213
172 | CAAUGUC | -0.34
173 | AGUUGUA | 0.108
174 | CCAACAC | -0.482
175 | UUGCCCU | -0.919
176 | AAUUGAU | -0.224
177 | CAACAGA | -0.114
178 | GCCGUAA | -0.388
179 | ACUACAC | -0.57
180 | CUUAACG | -0.57
181 | ACGCACA | -0.566
182 | GGAGUGU | 2.6
183 | GACUUAU | -0.723
184 | UGAGCCG | -0.14
185 | GCAGAGG | 2.33
186 | UUCACGU | -0.606
187 | UCAUGUA | -0.537
188 | CCGAAAA | -0.704
189 | CUUUGGG | 0.439
190 | AAAGGUU | 3.09
191 | GAGGGCC | 1.12
192 | CUACAUU | -0.854

Row | Sequence | RNAcompete 7-mer binding Z-score
193 | UGGGCGA | 3.11
194 | CAUCGGU | -0.296
195 | AGCUGCC | -0.795
196 | UUUCAAG | -0.581
197 | AGAGGAA | 2.46
198 | UCGACCC | -0.803
199 | AUAAAAU | -0.46
200 | AGUCUUG | -0.613
201 | AGGGCCA | 0.752
202 | GCGAAGC | 0.436
203 | CGCUACU | -0.73
204 | GAUUCCU | -0.832
205 | GUCGGGC | 1.13
206 | UCGGUCG | 0.0131
207 | UGAGUAU | -0.125
208 | UAUUCCA | -0.606
209 | GGAACAC | 1.11
210 | GCCGAGA | -0.275
211 | UUACCGA | -0.544
212 | AAUUACA | -0.511
213 | GUUAUGC | -0.406
214 | ACGCAGU | -0.475
215 | AUGCGAG | 0.731
216 | AUUGACG | -0.067

Row | Sequence | RNAcompete 7-mer binding Z-score
217 | CUGGGCG | 1.05
218 | ACGGCAU | 0.148
219 | CACGACU | -0.643
220 | AGCGCCA | -0.428
221 | GGUUAUG | 1.39
222 | AAUGCUU | -0.668
223 | GACGUUC | -0.774
224 | CGAGUGA | 0.476
225 | UGAGGAU | 1.69
226 | UGCCCAC | -0.537
227 | AUCUAAA | -0.577
228 | ACAGGUG | 2.02
229 | AUUGUGU | -0.388
230 | CUCCAGU | -0.639
231 | GGAGUUA | 1.67
232 | CUUUAUU | -0.763
233 | GAGCGCA | -0.0816
234 | CUCACCC | -0.883
